Measured values taken from PubChem BioAssay AID360 (National Center for Advancing Translational Sciences (NCATS), 2006).
The campaign covered roughly 48,000 compounds. About 550 (1.1%) were called active. Inconclusive results (about 4%) are left out. Rule as the data show it: active = potency below about 15 µM; inconclusive = mostly about 16 µM to 33 µM; inactive = weaker than that. This is one part of the list.

target: Lysosomal acid glucosylceramidase (Homo sapiens) (UniProt P04062); assay: Glucocerebrosidase; settings: purified enzyme, resorufin glucoside fluorescence (screen aimed at inhibitors), 20 min;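 also: the screen sought inhibitors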
Chain of UniProt P04062 (P04062 whole entry, looked up): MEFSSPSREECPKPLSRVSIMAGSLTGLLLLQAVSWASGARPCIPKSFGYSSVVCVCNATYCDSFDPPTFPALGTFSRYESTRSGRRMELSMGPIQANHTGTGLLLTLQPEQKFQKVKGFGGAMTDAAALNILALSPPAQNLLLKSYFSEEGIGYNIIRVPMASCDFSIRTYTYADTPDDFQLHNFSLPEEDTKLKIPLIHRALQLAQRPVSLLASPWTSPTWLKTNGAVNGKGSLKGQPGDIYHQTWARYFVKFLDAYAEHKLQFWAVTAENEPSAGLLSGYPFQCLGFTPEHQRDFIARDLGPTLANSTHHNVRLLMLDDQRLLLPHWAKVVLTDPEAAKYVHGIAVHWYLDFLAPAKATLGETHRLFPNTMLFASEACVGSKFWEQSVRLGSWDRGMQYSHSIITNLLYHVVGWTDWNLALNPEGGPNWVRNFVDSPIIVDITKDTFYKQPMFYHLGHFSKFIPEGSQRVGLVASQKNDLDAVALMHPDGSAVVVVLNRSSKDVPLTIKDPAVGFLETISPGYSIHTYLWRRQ
Procedure, shortened: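 Normal human glucocerebrosidase (0.2 nM final) was assayed with resorufin β-D-glucopyranoside (30 uM final) in 50mM citric acid/KH2PO4, 10mM sodium taurocholate, 0.01% tween-20, pH 5.9. Compounds were titrated; fluorescence (Ex 548, Em 600) read after 20 min at RT.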
Potency is read from the fitted curve at half-maximal effect.

| Structure (SMILES) | Potency |
| --- | --- |
| O=C(Nc1cc2nn(-c3ccccc3)nc2cc1Cl)c1ccco1 | inactive: > 76.9 µM |
| O=C(COc1cccc(C(F)(F)F)c1)NCCCN1CCCC1=O | inactive: > 76.9 µM |
| O=C(COc1ncnc2ccccc12)c1ccc2c(c1)OCCO2 | inactive: > 76.9 µM |
| Cc1ccc(S(=O)(=O)N(C)Cc2ccc(-c3nnco3)cc2)cc1 | inactive: > 76.9 µM |
| COc1cc2c(cc1OC)C(C(=O)O)C(c1cc(Br)c(O)c(OC)c1)N(C)C2=O (configuration not stated) | inactive: > 76.9 µM |
| COc1ccc(C(=O)NC(C)c2nc3ccccc3n2C)cc1OC (configuration not stated) | inactive: > 76.9 µM |
| Cc1cccc(NC(=O)Cn2cccc2)c1 | inactive: > 76.9 µM |
| Cc1cc(Cl)c(S(=O)(=O)N2CCN(c3ccc(F)cc3)CC2)cc1OCC(N)=O | inactive: > 76.9 µM |
| O=C(COc1ccc2c(c1)OCO2)Nc1ccc2c(c1)oc1ccccc12 | inactive: > 76.9 µM |
| COc1ccccc1C1C(C#N)=C(N)Oc2cc(C)n(CCCn3ccnc3)c(=O)c21 (configuration not stated) | inactive: > 76.9 µM |
| Cc1cc(C)n2nc(SC(C)C(=O)NCc3ccco3)nc2n1 (configuration not stated) | inactive: > 76.9 µM |
| Cc1cc(OCc2nnc(SCC(=O)OC3CCCCC3)o2)ccc1Cl | inactive: > 76.9 µM |
| CCOC(=O)C1=C(N)Oc2cc(O)ccc2C1c1cccnc1 (configuration not stated) | inactive: > 76.9 µM |
| Cn1c(=O)n(CCc2ccccc2)c(=O)c2c1nc1n2CCCN1c1ccccc1 | inactive: > 76.9 µM |
| O=C(OCc1cccs1)c1ccccc1NS(=O)(=O)c1ccc2c(c1)OCCO2 | inactive: > 76.9 µM |
| Cc1cc(C)cc(N(C(=O)c2ccc3c(c2)OCO3)C2C=CS(=O)(=O)C2)c1 (configuration not stated) | inactive |
| Cc1ccc(S(=O)(=O)NC(=O)N2CCC(C)CC2)cc1 | inactive: > 76.9 µM |
| O=C(CCSc1ccc(Cl)cc1)N1CCN(c2ncccn2)CC1 | inactive: > 76.9 µM |
| O=C(CSc1nnc2c(Cl)cc(Cl)cn12)N1CCN(S(=O)(=O)c2ccccc2)CC1 | inactive: > 76.9 µM |
| CCOC(=O)c1ccc(N=C2NC(=O)CS2)cc1 | inactive: > 76.9 µM |
| O=C(OCC(=O)c1cccs1)C1=COCCO1 | inactive: > 76.9 µM |
| S=C(c1ccc2c(c1)OCO2)N1CCCC1 | inactive: > 76.9 µM |
| O=c1c2ccccc2oc2nc(C3CCCCC3)n(Cc3ccco3)c(=O)c12 | inactive: > 76.9 µM |

| Structure (SMILES) | Potency |
| --- | --- |
| Cc1nc2ncnn2c(C)c1CCC(=O)NCc1ccco1 | inactive: > 76.9 µM |
| CC1(C)CC(=O)C2=C(C1)N=C1SCCC(=O)N1C2c1ccccc1 (configuration not stated) | inactive: > 76.9 µM |
| COc1ccc(S(=O)(=O)N2C3CCC2CC(NC(=O)C2CC2)C3)cc1 (configuration not stated) | inactive: > 76.9 µM |
| Cc1cc(C(=O)CSc2nc3ccc(Cl)cc3[nH]2)c(C)n1C | inactive: > 76.9 µM |
| Nc1cc(N)nc(SCC(=O)Nc2ccc3c(c2)OCCCO3)n1 | inactive: > 76.9 µM |
| O=C(COC(=O)c1n[nH]c2ccccc12)NC(=O)NC12CC3CC(CC(C3)C1)C2 | inactive: > 76.9 µM |
| COc1ccc(CCn2c(N)cc(=O)[nH]c2=S)cc1OC | inactive |
| CCOC(=O)N1CCN(C(=O)c2ccc3c(=O)n(Cc4ccccc4)c(=S)[nH]c3c2)CC1 | inactive: > 76.9 µM |
| CCN1CCN(C(=O)CN(c2ccccc2C)S(C)(=O)=O)CC1 | inactive: > 76.9 µM |
| CCOC(=O)CSc1nnc2c(n1)C1(C)CCC2C1(C)C (configuration not stated) | inactive: > 76.9 µM |
| O=C(O)c1cc2ccccc2n1-c1ccccc1 | inactive: > 76.9 µM |
| Cc1ccc(NC(=O)N2CCC(C(=O)NCc3ccc(F)cc3)CC2)cc1 | inactive: > 76.9 µM |
| COc1ccc2c(=O)c3c(=O)n(Cc4ccco4)c(-c4cc(OC)c(OC)c(OC)c4)nc3oc2c1 | inactive: > 76.9 µM |
| COc1cc(OC)cc(C(=O)NCc2n[nH]c(=S)n2-c2ccccc2OC)c1 | inactive: > 76.9 µM |
| COc1ccc(CC(=O)OCc2cc3ccccc3[nH]c2=O)cc1 | inactive: > 76.9 µM |
| O=C(CN1CCC(O)(c2ccc3c(c2)OCO3)CC1)OC1CCCCC1 | inactive: > 76.9 µM |
| CC(=O)Nc1cc(C(=O)N2CCOCC2)ccc1S(=O)(=O)c1ccc(C)cc1 | inactive: > 76.9 µM |
| Fc1ccc2c(c1)[C@H]1OCC[C@H]1[C@@H](c1ccco1)N2 | inactive: > 76.9 µM |
| CN(C)S(=O)(=O)N1CCN(c2ccc(Cl)cc2)CC1 | inactive: > 76.9 µM |
| COc1ccc(C)cc1NC(=O)C1C2C=CC(C2)C1C(=O)O (configuration not stated) | inactive: > 76.9 µM |
| CCCCCCNS(=O)(=O)c1ccc(OC)c(OC)c1 | inactive: > 76.9 µM |
| COC(=O)c1cc2c(s1)CS(=O)C2 (configuration not stated) | inactive: > 76.9 µM |
| N#CCCN1CCN(CCC#N)CC1 | inactive: > 76.9 µM |

| Structure (SMILES) | Potency |
| --- | --- |
| COc1ccc(C(=O)N2CCN(c3nnnn3-c3ccccc3)CC2)cc1OC | inactive: > 76.9 µM |
| O=C(CCCCn1c(=O)c2ccccc2n(CC(=O)NC2CCCC2)c1=O)NC1CCCC1 | inactive: > 76.9 µM |
| Cc1c(Cl)cccc1N(CC(=O)O)S(C)(=O)=O | inactive: > 76.9 µM |
| CC(C)N=C(NC#N)SCc1ccccc1F | inactive: > 76.9 µM |
| O=C(NCc1ccco1)c1noc2c1CCCC2 | inactive: > 76.9 µM |
| CCOc1ccc(N(CC(=O)NC(C)(C)C)C(=O)c2ccco2)cc1 | inactive: > 76.9 µM |
| CCCCCOC(=O)CSc1nc2c(c(=O)[nH]c(=O)n2C)n1CCc1ccccc1 | inactive: > 76.9 µM |
| O=C(C1CC1)N1CCN(c2nc3ccccc3s2)CC1 | inactive: > 76.9 µM |
| CCc1nc(N2CCCCC2)c2oc3ccccc3c2n1 | inactive: > 76.9 µM |
| COc1ccccc1Cc1noc(-c2cc(Cl)ccc2OC)n1 | inactive: > 76.9 µM |
| CCSc1nnc(Nc2ccccc2)s1 | inactive: > 76.9 µM |
| CC(=O)c1c(C)n(CC(=O)NCc2ccc3c(c2)OCO3)c2ccccc12 | inactive: > 76.9 µM |
| CC(C)NC(=O)c1ccc2c(=O)n(C3CCCC3)c(=S)[nH]c2c1 | inactive: > 76.9 µM |
| O=C(CN1CCOCC1)OCCCC1CCCCC1 | inactive: > 76.9 µM |
| CCC(C)(C)NC(=O)CC(c1ccc(OC)cc1)n1cccc1 (configuration not stated) | inactive: > 76.9 µM |
| COc1ccc(NC(=O)c2ccc3c(=O)n(Cc4ccco4)c(=S)[nH]c3c2)c(OC)c1 | inactive: > 76.9 µM |
| CCOc1cc2[nH]c(=O)n(CCCN3CCCC3=O)c(=O)c2cc1OCC | inactive: > 76.9 µM |
| Cc1ccc2nc(Nc3ncc4c(n3)CCCC4=O)nc(C)c2c1 | inactive: > 76.9 µM |
| CCN1C(=O)C(CC(=O)NCc2ccc(Cl)cc2)N(CC)C1=O (configuration not stated) | inactive: > 76.9 µM |
| CC12CC(NC(=O)N1c1cccc(C(=O)N3CCN(c4ccccc4F)CC3)c1)c1ccccc1O2 (configuration not stated) | inactive: > 76.9 µM |
| Cc1cccc(C)c1NC(=O)C1(N2CCN(C(=O)c3ccco3)CC2)CCCCC1 | inactive: > 76.9 µM |
| O=C(NCCCN1CCN(c2ccccc2F)CC1)C1CCN(S(=O)(=O)c2cccs2)CC1 | inactive: > 76.9 µM |
| O=C(COC(=O)c1ccc(S(=O)(=O)NCc2ccco2)cc1)NCCC1=CCCCC1 | inactive: > 76.9 µM |

| Structure (SMILES) | Potency |
| --- | --- |
| Cc1nnc(SCC(=O)NC(C)(C)C)n1CCc1ccccc1 | inactive: > 76.9 µM |
| CCCc1cc(=O)n2[nH]c(C)cc2n1 | inactive: > 76.9 µM |
| Cc1cc(C)nc(-n2nc(C)cc2Nc2ccccc2)n1 | inactive: > 76.9 µM |
| OCCN1CCN(c2nc(-c3ccccc3)nc3c2oc2ccccc23)CC1 | inactive |
| CCOc1ccc2nc(-c3ccccc3)[nH]c2c1 | inactive |
| Cn1c(CCN2CCCCC2)nc2cc(NS(=O)(=O)c3ccc(F)cc3)ccc21 | inactive: > 76.9 µM |
| Cc1ccc(C)c(S(=O)(=O)NC(CCC(N)=O)C(=O)O)c1 (configuration not stated) | inactive: > 76.9 µM |
| O=C1OC2(CCCCC2)OC(=O)C1=CNc1nccs1 | inactive: > 76.9 µM |
| CCN(C(=O)CN1CCN(c2ccc(OC)cc2)CC1)c1c(N)n(Cc2ccccc2)c(=O)[nH]c1=O | inactive: > 76.9 µM |
| COC(=O)Cc1[nH]nc2c1C1(CCSCC1)C(C#N)=C(N)O2 | inactive: > 76.9 µM |
| COc1ccccc1C(c1nnnn1C(C)(C)C)N1CCCCCC1 (configuration not stated) | inactive: > 76.9 µM |
| COc1n[nH]c2nncnc12 | inactive: > 76.9 µM |
| Cc1[nH]c2ccc(F)cc2c(=O)c1SC(F)(F)C(F)F | active: 9.46 µM |
| Cc1csc(NC(=O)c2c(O)c3cccc4c3n(c2=O)CCC4)n1 | inactive: > 76.9 µM |
| Cc1cc(C)c(C#N)c(SCC(=O)OC2CCCCC2)n1 | inactive: > 76.9 µM |
| O=c1cc(Nc2ccc3c(c2)OCCO3)[nH]c(=O)n1C1CCCCC1 | inactive: > 76.9 µM |
| O=C(CCCNS(=O)(=O)c1cccc2nsnc12)N1CCCCC1 | inactive: > 76.9 µM |
| Cc1ccccc1-c1nc(CN2CCC(C(=O)NCCCN3CCOCC3)CC2)c(C)o1 | inactive: > 76.9 µM |
| CC1=CC(C)C2C(=O)N(CCC[N+](C)(C)C)C(=O)C2C1 (configuration not stated) | inactive: > 76.9 µM |
| COc1ccccc1-c1cc(C(F)(F)F)nc(N2CCN(c3ccccc3)CC2)n1 | inactive: > 76.9 µM |
| COc1ccc(-n2c(=O)cc(N3CCCCCC3)[nH]c2=O)cc1 | inactive: > 76.9 µM |
| Cc1ccc(OCCN2CCN(C(=O)CCC(=O)Nc3nnc(C)s3)CC2)cc1 | inactive: > 76.9 µM |
| CC(C)OC(=O)CSc1nnnn1-c1ccc2c(c1)OCCO2 | inactive: > 76.9 µM |
